The campaign covered roughly 48,000 compounds. About 550 (1.1%) were called active. Inconclusive results (about 4%) are left out. No stated cut-off is given here; in the data, active means potency below about 15 µM; inconclusive means mostly about 16 µM to 33 µM; inactive means weaker than that. Some of the results follow.
target: Lysosomal acid glucosylceramidase (Homo sapiens) (UniProt P04062); test: Glucocerebrosidase; conditions: purified enzyme, resorufin glucoside fluorescence (screen aimed at inhibitors), 20 min;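 further: the screen sought inhibitors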
Method in brief: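 Normal human glucocerebrosidase (0.2 nM final) was assayed with resorufin β-D-glucopyranoside (30 uM final) in 50mM citric acid/KH2PO4, 10mM sodium taurocholate, 0.01% tween-20, pH 5.9. Compounds were titrated; fluorescence (Ex 548, Em 600) read after 20 min at RT.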
Potency means the concentration at half of the fitted maximal effect.

Sequence of UniProt P04062 (P04062 whole entry, looked up): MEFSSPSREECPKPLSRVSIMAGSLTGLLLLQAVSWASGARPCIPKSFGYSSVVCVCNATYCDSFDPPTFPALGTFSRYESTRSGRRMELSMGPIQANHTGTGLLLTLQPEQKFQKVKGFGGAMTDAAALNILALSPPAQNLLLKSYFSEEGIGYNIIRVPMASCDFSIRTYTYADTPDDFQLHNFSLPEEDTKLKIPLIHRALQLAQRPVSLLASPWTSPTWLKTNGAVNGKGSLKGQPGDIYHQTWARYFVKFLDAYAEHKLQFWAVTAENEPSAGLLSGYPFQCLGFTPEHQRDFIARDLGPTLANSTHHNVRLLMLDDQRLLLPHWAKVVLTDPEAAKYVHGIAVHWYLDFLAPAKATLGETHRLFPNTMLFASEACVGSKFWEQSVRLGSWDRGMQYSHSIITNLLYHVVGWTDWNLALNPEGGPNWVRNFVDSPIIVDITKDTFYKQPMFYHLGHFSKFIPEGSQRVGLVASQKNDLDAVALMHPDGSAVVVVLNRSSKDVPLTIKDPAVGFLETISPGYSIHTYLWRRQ

Potency, inactive:
Cc1ccc(C(=O)C2CCN(CC(=O)Nc3ccc4c(c3)OCCO4)CC2)cc1 > 76.9 µM, O=C(c1cc2ccccc2o1)N1CCN(c2ccccc2Cl)CC1 > 76.9 µM, CCn1c(=O)cc(OCC(=O)NCC2CCCO2)c2ccccc21 (stereo not drawn) > 76.9 µM, CS(=O)(=O)N1CCC(C(=O)NCc2ccncc2)CC1 > 76.9 µM, CCn1cnc2sc(-c3ccccc3)cc2c1=O > 76.9 µM, OC(COCC1COc2ccccc2O1)CN1CCN(c2ccccn2)CC1 (stereo not drawn) > 76.9 µM, CCCc1cc(=O)[nH]c(SCC(=O)N2CCN(c3ccc(F)cc3)CC2)n1 > 76.9 µM, CCOc1cc(C2C3=C(CCCC3=O)N(C)C3=C2C(=O)CCC3)cc(Cl)c1O > 76.9 µM, CCCn1c(C)cc(=O)c2cc(NC(=O)c3cnccn3)ccc21 > 76.9 µM, CCOc1ccc(-n2c(=S)sc3c(=O)[nH]c(SCC(=O)NCc4ccco4)nc32)cc1 > 76.9 µM, COC(=O)C1=C2SC(C)C(=O)N2C(N)=C(C#N)C1c1cc(OC)c(OC)c(OC)c1 (stereo not drawn) > 76.9 µM, COc1ccc(C)cc1NC(=O)CSc1nnc(-c2ccc(Br)cc2)o1 > 76.9 µM, CCCn1c(SCc2cc(=O)[nH]c3ccccc23)nc2c1c(=O)n(C)c(=O)n2C > 76.9 µM, O=C(NC1CC2CCCC(C1)N2C(=O)N1CCCCC1)C1CCCCC1 (stereo not drawn) > 76.9 µM, CC1(C)NC(=O)N(CCCSc2ccc(Cl)cc2)C1=O > 76.9 µM, COc1cccc(C(=O)N(Cc2nc(-c3cccc(C)c3)no2)C(C)C)c1OC > 76.9 µM, Cc1noc(C)c1COC(=O)c1ccccc1Oc1ccccc1 > 76.9 µM, CC(C)c1ccccc1NC(=O)c1cnccn1 > 76.9 µM, CCCn1c(=O)c2ccccc2n2c(SCc3nnc(-c4ccccc4Br)o3)nnc12 > 76.9 µM, COc1ccc(CCN2C(=O)CC(C(N)=O)SC2=Nc2ccccc2)cc1OC (stereo not drawn) > 76.9 µM, O=C(Nc1ccc(F)cc1)N1CCn2c(nc3ccccc32)C1 > 76.9 µM, CCOc1ccc(NC(=O)CN(C)CC(=O)NC2CCCc3ccccc32)cc1OCC (stereo not drawn) > 76.9 µM, COc1cc(-c2nnc(-c3cccnc3)o2)cc(OC)c1OC > 76.9 µM, O=C(C(NS(=O)(=O)c1cccc2nsnc12)c1ccccc1)N1CCN(c2ccccn2)CC1 (stereo not drawn) > 76.9 µM, Cc1sc(NC(=O)CSc2nnc(COc3ccc(Cl)cc3)n2C)c(C#N)c1C > 76.9 µM, N#CC1=C(N)Oc2c(oc(CO)cc2=O)C1c1ccsc1 (stereo not drawn) > 76.9 µM, O=C(CCN1C(=O)C2C3C=CC(C3)C2C1=O)Nc1c(F)cccc1F (stereo not drawn) > 76.9 µM, O=C(NCc1csc(-c2ccccc2)n1)c1ccco1 > 76.9 µM, Cc1ccc(-c2cc(C(=O)N3CCOCC3)c3ccccc3n2)cc1 > 76.9 µM, Cc1nn(-c2ccccc2)c2[nH]c(C(F)(F)F)cc(=O)c12 > 76.9 µM, O=C(CN1CCOCC1)NCc1ccccc1 > 76.9 µM, COc1ccccc1C(=O)NC(C)C(c1cccs1)N1CCOCC1 (stereo not drawn) > 76.9 µM, CN1CCN(c2nc3nonc3nc2N2CCN(C)CC2)CC1 > 76.9 µM, Cc1cc(C)nc(N(C#N)CC(=O)Nc2ccccc2)n1 > 76.9 µM, CC1CCc2c(nc3ncnn3c2N2CC(C)OC(C)C2)C1 (stereo not drawn) > 76.9 µM, CC(O)CNc1nc2c(c(=O)n(C)c(=O)n2C)n1C/C=C/c1ccccc1 (stereo not drawn) > 76.9 µM, CCOC(=O)C1C(=O)NC(N2CCCCC2)=NC1c1ccccc1 (stereo not drawn) > 76.9 µM, COc1ccc(C)cc1N(CC(=O)NC1CCCC1)C(=O)CCC(=O)Nc1cc(C)on1 > 76.9 µM, Cc1ccc(C(=O)OCC(=O)Nc2ccccc2)cc1NC(=O)c1ccco1 > 76.9 µM, Cc1cc(C(=O)Nc2ccc(S(=O)(=O)N3CCCC3)cc2)cs1 > 76.9 µM, Cn1c2ccccc2c2ncn(Cc3ccco3)c(=O)c21 > 76.9 µM, Cc1ccc(S(=O)(=O)N(c2ccccc2)C2CCS(=O)(=O)C2)cc1 (stereo not drawn) > 76.9 µM, COc1ccccc1C1C2=C(N=C3SCC(=O)N31)c1ccccc1CC2 (stereo not drawn) > 76.9 µM, COc1ccc(-n2c(Cc3cccn3C)nnc2SCC(=O)Nc2cccc(NC(C)=O)c2)cc1 > 76.9 µM, O=C(NCc1ccccc1)NC(=O)c1ccncc1 > 76.9 µM, CC(=O)Nc1ccc(S(=O)(=O)N2CCSC2C(=O)O)cc1 (stereo not drawn) > 76.9 µM, O=C(Oc1ccccc1C(=O)N1CCOCC1)c1cccc(Br)c1 > 76.9 µM, COc1cccc(C2/C(=C(/O)c3ccncc3)C(=O)C(=O)N2CCCN2CCOCC2)c1OC (stereo not drawn) > 76.9 µM, Cc1ccc(C2C(C(=O)c3sc(C)nc3C)=C(O)C(=O)N2CCN2CCOCC2)o1 (stereo not drawn) > 76.9 µM, Cc1csc2nc(CNS(=O)(=O)c3cccnc3)cn12 > 76.9 µM, COC(=O)c1ccccc1NC(=O)c1ccc(NS(C)(=O)=O)cc1 > 76.9 µM, COc1ccc(-n2c(SCC(=O)N3CCCC(C)C3)nnc2-c2cccnc2)cc1 (stereo not drawn) > 76.9 µM, COc1cc2nc(NCC3CCCO3)n3nc(-c4cccnc4)nc3c2cc1OC (stereo not drawn) > 76.9 µM, CCOC(=O)c1c(C)c(C(=O)NC2CCCCC2)c(C)n1CC > 76.9 µM, CC(O)CNc1nc2c(c(=O)n(C)c(=O)n2C)n1Cc1cccc(Br)c1 (stereo not drawn) > 76.9 µM, CCCN(CCC)CCNC(=O)C1CCN(Cc2nc(-c3ccc(Cl)cc3)oc2C)CC1 > 76.9 µM, Cc1ccc(S(=O)(=O)Cc2ccc(C(=O)NCCCN3CCN(C)CC3)o2)cc1 > 76.9 µM, c1ccc(-c2cnc(CSc3nnc4ccccn34)o2)cc1 > 76.9 µM, CC(C)C(=O)Nc1cccc(-c2nc3ccccc3o2)c1 > 76.9 µM, CS(=O)(=O)N(Cc1nc2sc3c(c2c(=O)[nH]1)CCCC3)C1CCCCC1 > 76.9 µM, Cc1ccc(Cn2c(SCC(C)C)nc3c2c(=O)[nH]c(=O)n3C)cc1 > 76.9 µM, O=C(NCc1cccs1)c1cc2ccccc2o1 > 76.9 µM, O=C(NCc1cccnc1)C1CCN(S(=O)(=O)c2cccnc2)CC1 > 76.9 µM, CCNS(=O)(=O)c1ccc(NC(=O)c2ccccc2OCC)cc1 > 76.9 µM, Nc1ncc(-c2cc3ccccc3oc2=O)s1 > 76.9 µM, O=C(O)CCC(=O)Nc1ccc(N2CCCCCC2)cc1 > 76.9 µM, C=CCOc1cccc(C2/C(=C(/O)c3ccccc3)C(=O)C(=O)N2CCN2CCOCC2)c1 (stereo not drawn) > 76.9 µM, CCCn1c(=O)c2ccccc2n2c(SCc3nc4ccccc4s3)nnc12 > 76.9 µM, CC(C)n1nnnc1SCC(=O)N1CCOCC1 > 76.9 µM, c1ccc(-c2cc(-c3nnc4sc(-c5ccccn5)nn34)[nH]n2)cc1 > 76.9 µM, O=C(COc1ccccc1Br)c1ccc(O)cc1O, CC(=O)c1c(C)[nH]c(C(=O)COC(=O)CNS(=O)(=O)c2ccccc2)c1C > 76.9 µM, O=C(Nc1ccc2c(c1)OCCO2)c1ccncc1 > 76.9 µM, C=CCn1c(NC(=O)c2ccco2)c(S(=O)(=O)c2ccccc2)c2nc3ccccc3nc21 > 76.9 µM, COc1cccc(NC(=O)NCCCN2CCN(c3ccc(F)cc3)CC2)c1 > 76.9 µM, O=C(O)CSCNC(=O)CC12CC3CC(CC(C3)C1)C2 > 76.9 µM, COc1ccc2c(c1OC)C(=O)N1C(C(=O)O)Cc3c([nH]c4ccccc34)C21 (stereo not drawn) > 76.9 µM, CC(C)CN(C(=O)COC(=O)CCc1c[nH]c2ccccc12)C1CCS(=O)(=O)C1 (stereo not drawn) > 76.9 µM, Cc1ccc(S(=O)(=O)N2CCN(C(=O)N3CCOCC3)C2c2ccc(N(C)C)cc2)cc1 (stereo not drawn) > 76.9 µM, COc1ccc(Cl)c(Cn2c(NCCCN(C)C)nc3c2c(=O)n(C)c(=O)n3C)c1 > 76.9 µM, C=CCn1c(SCC(=O)N2CCN(C(=O)c3ccco3)CC2)nc2sc(CC)cc2c1=O > 76.9 µM, CCOC(=O)C1(CC)NC(c2cccc(F)c2)C2C(=O)N(CC)C(=O)C21 (stereo not drawn) > 76.9 µM, Cn1cc(C(=O)c2ccc(Cl)cc2)cc1-c1nc2ccccc2n1C, Cn1c(=O)[nH]c(=O)c2c1nc(NC1CCCCC1)n2Cc1ccccc1 > 76.9 µM, O=C(c1ccc(S(=O)(=O)N2CCOCC2)cc1)N(Cc1ccco1)Cc1cccs1 > 76.9 µM, CCCCOC(=O)C1Cc2ccccc2C(=O)O1 (stereo not drawn) > 76.9 µM, COc1ccc(C(=O)c2ccc(N3CCN(C4CC(=O)NC4=O)CC3)cc2)cc1F (stereo not drawn) > 76.9 µM, CCCOC(=O)C1=C(C)NC2=C(C(=O)C(C(=O)OC)C(C)C2)C1c1ccc(N(CC)CC)cc1 (stereo not drawn) > 76.9 µM

Reference: PubChem BioAssay AID360 (National Center for Advancing Translational Sciences (NCATS), 2006)
